# Reference: the supplement of paper PMC8728848
# The list shows a part of the results.
# Columns and labels:
# Assay in all cases: glycan array binding signal (z-score within array); higher = stronger binding
# Settings in all cases: glycan notation: IUPAC condensed, linker removed; mutation: E227G
# [1] = molecular target: Man(a1-2)Man(a1-3)[Man(a1-2)Man(a1-6)]Man
# How it was run: (§1)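 Negative Z-scores can be read as non-binding. The Z-score is calculated within each array and then averaged across arrays of one protein sequence at different concentrations or buffers and across linkers. Arrays, 3228 in all, were curated from the Consortium for Functional Glycomics database and kept only where the protein sequence was available.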
# [2] = molecular target: Man(a1-2)Man(a1-3)[Man(a1-2)Man(a1-6)]Man(a1-6)[Man(a1-2)Man(a1-2)Man(a1-3)]Man
# How it was run: as §1
# [3] = molecular target: Man(a1-2)Man(a1-3)[Man(a1-2)Man(a1-6)]Man(a1-6)[Man(a1-2)Man(a1-2)Man(a1-3)]Man(b1-4)GlcNAc(b1-4)GlcNAc
# How it was run: as §1
# [4] = molecular target: Man(a1-2)Man(a1-3)[Man(a1-6)]Man(a1-6)[Man(a1-2)Man(a1-3)]Man(b1-4)GlcNAc(b1-4)GlcNAc
# How it was run: as §1
# [5] = molecular target: Man(a1-2)Man(a1-6)[Man(a1-3)]Man(a1-6)[Man(a1-2)Man(a1-2)Man(a1-3)]Man
# How it was run: as §1
# [6] = molecular target: Man(a1-2)Man(a1-6)[Man(a1-3)]Man(a1-6)[Man(a1-2)Man(a1-2)Man(a1-3)]Man(b1-4)GlcNAc(b1-4)GlcNAc
# How it was run: as §1
# Man(a1-3)[Man(a1-6)]Man = molecular target: Man(a1-3)[Man(a1-6)]Man
# How it was run: as §1
# [7] = molecular target: Man(a1-3)[Man(a1-6)]Man(a1-6)[Man(a1-2)Man(a1-3)]Man(b1-4)GlcNAc(b1-4)GlcNAc
# How it was run: as §1
# [8] = molecular target: Man(a1-3)[Man(a1-6)]Man(a1-6)[Man(a1-3)]Man
# How it was run: as §1
# [9] = molecular target: Man(a1-3)[Man(a1-6)]Man(a1-6)[Man(a1-3)]Man(b1-4)GlcNAc(b1-4)GlcNAc
# How it was run: as §1
# [10] = molecular target: Man(a1-3)[Man(a1-6)]Man(b1-4)GlcNAc(b1-4)GlcNAc
# How it was run: as §1
# [11] = molecular target: Man(a1-3)[Man(a1-6)]Man(b1-4)GlcNAc(b1-4)[Fuc(a1-6)]GlcNAc
# How it was run: as §1
# Man(a1-6)Man = molecular target: Man(a1-6)Man
# How it was run: as §1
# Man(b1-4)GlcNAc = molecular target: Man(b1-4)GlcNAc
# How it was run: as §1
# MurNAc(b1-4)GlcNAc = molecular target: MurNAc(b1-4)GlcNAc
# How it was run: as §1
# Neu5Ac(a2-3)Gal = molecular target: Neu5Ac(a2-3)Gal
# How it was run: as §1
# [12] = molecular target: Neu5Ac(a2-3)Gal(b1-3)GalNAc
# How it was run: as §1
# [13] = molecular target: Neu5Ac(a2-3)Gal(b1-3)GalNAc(b1-3)Gal(a1-4)Gal(b1-4)Glc
# How it was run: as §1
# [14] = molecular target: Neu5Ac(a2-3)Gal(b1-3)GalNAc(b1-4)Gal(b1-4)Glc
# How it was run: as §1
# [15] = molecular target: Neu5Ac(a2-3)Gal(b1-3)GalNAc(b1-4)[Neu5Ac(a2-3)]Gal(b1-4)Glc
# How it was run: as §1
# [16] = molecular target: Neu5Ac(a2-3)Gal(b1-3)GalNAc(b1-4)[Neu5Ac(a2-8)Neu5Ac(a2-3)]Gal(b1-4)Glc
# How it was run: as §1
# [17] = molecular target: Neu5Ac(a2-3)Gal(b1-3)GalNAc6S
# How it was run: as §1
# [18] = molecular target: Neu5Ac(a2-3)Gal(b1-3)GlcNAc
# How it was run: as §1
# [19] = molecular target: Neu5Ac(a2-3)Gal(b1-3)GlcNAc(b1-2)Man
# How it was run: as §1
# [20] = molecular target: Neu5Ac(a2-3)Gal(b1-3)GlcNAc(b1-2)Man(a1-3)[GlcNAc(b1-4)][Neu5Ac(a2-3)Gal(b1-3)GlcNAc(b1-2)Man(a1-6)]Man(b1-4)GlcNAc(b1-4)GlcNAc
# How it was run: as §1
# [21] = molecular target: Neu5Ac(a2-3)Gal(b1-3)GlcNAc(b1-2)Man(a1-3)[Neu5Ac(a2-3)Gal(b1-3)GlcNAc(b1-2)Man(a1-6)]Man(b1-4)GlcNAc(b1-4)GlcNAc
# How it was run: as §1
# [22] = molecular target: Neu5Ac(a2-3)Gal(b1-3)GlcNAc(b1-2)[Neu5Ac(a2-3)Gal(b1-3)GlcNAc(b1-4)]Man(a1-6)[Neu5Ac(a2-3)Gal(b1-3)GlcNAc(b1-2)Man(a1-3)]Man(b1-4)GlcNAc(b1-4)GlcNAc
# How it was run: as §1
# [23] = molecular target: Neu5Ac(a2-3)Gal(b1-3)GlcNAc(b1-3)Gal(b1-3)GlcNAc
# How it was run: as §1
# [24] = molecular target: Neu5Ac(a2-3)Gal(b1-3)GlcNAc(b1-3)Gal(b1-4)GlcNAc
# How it was run: as §1
# [25] = molecular target: Neu5Ac(a2-3)Gal(b1-3)GlcNAc(b1-3)GalNAc
# How it was run: as §1
binder,measurement,setting,value
"Epa1-NP-mutant-E227G (Candida glabrata), Q6VBJ0 (protein) MILNPALFLNKCVCIYTTLILLLLTNGGYATSSNDISLASKDPTTFPLGCSPDITTPKKGLSMELYSYDFRKKGSYPCWDAAYLDPNYPRTGYKSHRLLAKVDGVTGNINFYYHATKGCTPQLGHLPASYNYPKPLTMTNFTMLLYGYFRPKVTGFHTFTISADDLLFVNFGAGNAFDCCRRDSSADHFGNYQAYAIWGSKTAKDELTVHLDAGVYYPIRLFYNNRGYDGALSFTFKTESNENTVSDFSEYFFSLDDTEEGCPGLISYDSSCASVKTSKIIGIDYHTETPNENLVPITKTIYHLGIPCTGTTTTPLCGSGFYDPLANKCVTINTSSTSSVTKTTSHTTSKEVSFHSSISSQKTLIPKSIPSPYGPIKSQSIPTEMETSSEISSSEYAFSDVISTPSHSPYTKKHSSLNSSSYTSTVIHSLTSYSISQGIFSTSLSEQNITSKSSTDKFSTATSMSNNITQSSIIISQFSTNNENYTTTSMHTSSDKISTETLNNSISTTTSILFSNSSTILKNNTTIISSDKDTHYHPVNPTIVCSTNKTEIICASITQPSISNSNNHWSSSVLKFNSTTVRSTLPSSAGSNETSINVPFSSSTESNTSTSSTSTSNSKMVRSTLPSSAGSNETSISVPFSSSTESNTSTSSTSTSNSKMVRSTLPSSAGSNETSINVPFSSSTESNTSTSSTSTSNSKTVRSTPFSSAGIIMTSLSQRNNKSASSYASSNSKCYNTADSCRKVHSTPSYLLTSSYTSEGVDYDCSLVSTKLKINDTNCVNNKHTTKSCLKTSVTTTIPTLEIKTARKSSSNTIGLHSYPTSSPNKSISSAPIIGYISSFKTIKTASPSYQTSDLTTITTITSLNNPGSTAVENTHESNDKSRKTSSNDISSKHSVIKETKDAVESSNKSHQTNTLKCSSIIIASSSHNSYESLGGTTLTLTLSKVYSPQNNDTLPFLEISEVNPSRTVLPESSKMMQYLTSTEERNKTARNTIATNIVSISTFHFEGEGNAIRMGYTQLLLMLIGIIVMNIGT",glycan array binding signal (z-score),[1],-0.26
same,glycan array binding signal (z-score),[2],-0.144
same,glycan array binding signal (z-score),[3],-0.127
same,glycan array binding signal (z-score),[4],-0.291
same,glycan array binding signal (z-score),[5],0.017
same,glycan array binding signal (z-score),[6],-0.173
same,glycan array binding signal (z-score),Man(a1-3)[Man(a1-6)]Man,-0.126
same,glycan array binding signal (z-score),[7],-0.16
same,glycan array binding signal (z-score),[8],-0.162
same,glycan array binding signal (z-score),[9],-0.307
same,glycan array binding signal (z-score),[10],-0.182
same,glycan array binding signal (z-score),[11],-0.132
same,glycan array binding signal (z-score),Man(a1-6)Man,-0.227
same,glycan array binding signal (z-score),Man(b1-4)GlcNAc,-0.19
same,glycan array binding signal (z-score),MurNAc(b1-4)GlcNAc,-0.166
same,glycan array binding signal (z-score),Neu5Ac(a2-3)Gal,-0.003
same,glycan array binding signal (z-score),[12],-0.211
same,glycan array binding signal (z-score),[13],-0.212
same,glycan array binding signal (z-score),[14],-0.209
same,glycan array binding signal (z-score),[15],-0.222
same,glycan array binding signal (z-score),[16],-0.211
same,glycan array binding signal (z-score),[17],-0.221
same,glycan array binding signal (z-score),[18],-0.16
same,glycan array binding signal (z-score),[19],-0.13
same,glycan array binding signal (z-score),[20],-0.114
same,glycan array binding signal (z-score),[21],0.018
same,glycan array binding signal (z-score),[22],0.068
same,glycan array binding signal (z-score),[23],-0.229
same,glycan array binding signal (z-score),[24],-0.256
same,glycan array binding signal (z-score),[25],-0.191
